# In the supplement of paper PMC5499739:
# Over roughly 16,000 sequences, “Z-score” has its median near -0.37; the highest 2% begin near 3.1. The list shows a part of the results.
# Tested on: RBM10 RRM1-ZnF-RRM2 (GST-tagged construct)
# Assay: RNAcompete 7-mer binding Z-score; higher = stronger binding preference
# Description: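 RNAcompete: 20 pmol GST-tagged RBM10 RNA-binding constructs were incubated with a designed RNA pool of about 241,000 sequences up to 41 nt (1.5 nmol) on glutathione beads for 30 min at 4 °C and washed. Bound RNAs were identified by microarray hybridisation. Each RNA 7-mer is scored by a one-sided Z-score of its enrichment, computed over probes that contain the 7-mer within longer pool sequences.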
row,Sequence,RNAcompete 7-mer binding Z-score
1,UGCGAUG,-0.0197
2,UAUUGGC,-0.18
3,AUGGAAU,1.75
4,GUAAGGU,2.57
5,AUCCGAG,-0.402
6,GGUAUGG,4.03
7,GCAAGAG,0.789
8,CAGACGU,-0.0452
9,CUGUUGA,-0.661
10,GCAACAA,0.0422
11,ACGGAUU,0.829
12,UAGCCUC,-0.744
13,UCAAUAC,-0.249
14,CAUAUUG,-0.366
15,ACACGCG,-0.264
16,UACGUCC,-0.635
17,UCACACG,-0.377
18,AAAUAGU,-0.202
19,GUGCCCA,-0.675
20,AGGACAA,1.29
21,AUAUCUA,-0.464
22,CCUGUAA,-0.777
23,CUUUAAA,-0.876

row,Sequence,RNAcompete 7-mer binding Z-score
1,UCCUUUU,-0.883
2,GGUGUCG,1.21
3,AAUCGUC,-0.639
4,GGGUUGC,1.92
5,AUGUCCA,-0.741
6,CUAUUUC,-0.912
7,ACGUUGU,-0.22
8,UAUAGGC,0.0969
9,CAAGAGA,-0.0816
10,GGGCUUU,0.315
11,CCAGACU,-0.799
12,GUACGUU,-0.224
13,UGCGGUG,1.37
14,UGAGUUU,-0.078
15,ACUUCAA,-0.595
16,GACGGGU,2.37
17,UAAGUAA,0.0859
18,ACACGAU,-0.424
19,UUACGAG,-0.191
20,UGUAGAG,0.978
21,GCUACGC,-0.362
22,UAGAACA,0.326
23,UACGUAU,-0.413

row,Sequence,RNAcompete 7-mer binding Z-score
1,UUUCAUA,-0.686
2,CCGCCCU,-0.737
3,AUCAGAU,-0.0161
4,UAUGGGU,2.81
5,GGCCUUA,-0.307
6,AUUAAAU,-0.42
7,UGUCAAU,-0.497
8,GAACUAG,-0.0853
9,CAAAAGA,-0.158
10,UACUAAC,-0.526
11,UCAAGAC,-0.537
12,CGUACAG,-0.00148
13,GCCGUCA,-0.526
14,AAUAGUA,0.261
15,CAGGUGG,2.53
16,UCUAGUG,-0.322
17,CUCGGUG,0.159
18,UCAACGU,-0.486
19,CAGCACU,-0.439
20,GACCGGC,-0.468
21,CUCCUUA,-0.817
22,UAUCCUC,-0.683
23,CGCGACU,-0.661

row,Sequence,RNAcompete 7-mer binding Z-score
1,UAAUUUU,-0.89
2,GAAUGUG,0.996
3,GUUCGUG,0.199
4,CGGUGCG,0.833
5,GGAUUAG,2.29
6,GCUGCCA,-0.708
7,CAAUCGU,-0.541
8,GUAAAGU,0.396
9,UGCUGCG,-0.34
10,ACAGAAA,-0.0233
11,CCACCGU,-0.566
12,AAGGUCA,1.15
13,UUGCCCG,-0.788
14,CCAGACG,-0.329
15,CCGGUCU,-0.701
16,GCGUGUA,0.472
17,AGCGGAG,2.29
18,CGUUAAC,-0.504
19,GGGGCAG,3.07
20,CUUAUUC,-0.905
21,GCCGGCU,-0.694
22,CAGACCU,-0.803
23,UGAUUUU,-0.876
